Laboratory results reported in PubChem BioAssay AID504332 (National Center for Advancing Translational Sciences (NCATS), 2011).
In all, about 350,000 compounds went through this assay and about 31,000 (8.9%) were called active. This list was built around the results that the source calls inconclusive (neither active nor inactive); the mix of calls is not that of the screen. Calls come from the whole dose curve; as a rule, active = well fitted inhibition curve with a large enough effect; inconclusive = small, poorly fitted or top-dose-only effect; inactive = no such curve, though single readings can be large or run the other way. Where the call is inconclusive, the potency comes from a doubtful curve fit.

target: Histone-lysine N-methyltransferase EHMT2 (Homo sapiens) (UniProt Q96KQ7); test: qHTS Assay for Inhibitors of Histone Lysine Methyltransferase G9a; conditions: G9a H3K9 monomethylation, AlphaScreen, 2 h; activity, negative = inhibition: at 59 µM (top of the series) unless noted; note: nearly all actives have a fitted effect of over 75% in size
UniProt Q96KQ7, sequence (Q96KQ7 whole entry, looked up): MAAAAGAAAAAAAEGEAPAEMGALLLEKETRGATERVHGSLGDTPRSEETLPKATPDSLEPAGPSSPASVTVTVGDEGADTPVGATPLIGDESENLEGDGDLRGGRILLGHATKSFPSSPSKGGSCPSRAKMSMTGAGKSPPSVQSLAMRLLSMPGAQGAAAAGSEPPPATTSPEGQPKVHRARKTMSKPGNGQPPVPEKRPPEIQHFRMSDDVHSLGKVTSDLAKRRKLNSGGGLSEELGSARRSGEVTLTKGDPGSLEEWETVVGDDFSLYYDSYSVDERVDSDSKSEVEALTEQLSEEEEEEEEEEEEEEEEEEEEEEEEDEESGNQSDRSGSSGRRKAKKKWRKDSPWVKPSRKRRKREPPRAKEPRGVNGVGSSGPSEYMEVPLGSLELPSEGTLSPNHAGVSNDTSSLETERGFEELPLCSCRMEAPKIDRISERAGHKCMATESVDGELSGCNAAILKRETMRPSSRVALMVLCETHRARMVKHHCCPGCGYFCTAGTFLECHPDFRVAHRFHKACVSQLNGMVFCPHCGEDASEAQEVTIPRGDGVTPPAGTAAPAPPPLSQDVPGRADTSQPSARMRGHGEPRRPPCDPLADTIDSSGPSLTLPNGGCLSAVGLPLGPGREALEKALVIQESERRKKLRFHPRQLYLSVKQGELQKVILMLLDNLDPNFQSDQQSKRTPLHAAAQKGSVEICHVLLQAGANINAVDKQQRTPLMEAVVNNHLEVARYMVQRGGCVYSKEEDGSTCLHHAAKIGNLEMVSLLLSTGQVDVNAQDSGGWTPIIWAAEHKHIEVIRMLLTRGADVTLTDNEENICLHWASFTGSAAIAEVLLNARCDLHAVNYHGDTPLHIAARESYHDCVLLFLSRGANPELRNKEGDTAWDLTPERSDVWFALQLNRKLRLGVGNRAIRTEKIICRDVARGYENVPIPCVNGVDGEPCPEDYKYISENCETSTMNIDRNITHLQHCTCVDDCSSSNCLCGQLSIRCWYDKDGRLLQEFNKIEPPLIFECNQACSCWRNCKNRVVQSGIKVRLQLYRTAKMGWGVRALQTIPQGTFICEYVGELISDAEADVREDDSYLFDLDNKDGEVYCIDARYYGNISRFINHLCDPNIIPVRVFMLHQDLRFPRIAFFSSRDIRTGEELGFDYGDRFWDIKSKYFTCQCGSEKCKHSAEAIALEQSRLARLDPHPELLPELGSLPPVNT
In short: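 G9a (20 nM) was preincubated 15 min with compound, then reacted 2 h at room temperature with 500 nM biotin-H3K9 peptide and 20 µM SAM. Monomethyl-H3K9 detected by AlphaScreen using anti-H3K9me1 antibody.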
% is set by controls: 0 for no effect and ±100 for the full control effect; potency is the fitted concentration of half-maximal effect; tags give direction and shape of the fitted curve.

Row | SMILES | Potency | activity, negative = inhibition
1 | COc1cc(C(=O)O/N=C(\N)Cc2ccc([N+](=O)[O-])cc2)cc(OC)c1OC | inconclusive: 50.1 µM [inhibitor, partial curve] | –
2 | COc1ccccc1N(C)S(=O)(=O)c1ccc(C(=O)NCC2CCCCC2)cc1 | – | inactive: 2.66% [at 12.7 µM]
3 | O=C1C(=O)N(Cc2cccnc2)C(c2cccc([N+](=O)[O-])c2)/C1=C(\O)c1ccc2c(c1)OCCO2 (stereo not given) | inconclusive: 7.08 µM [inhibitor, full curve, poor fit] | –
4 | COc1cccc(OCC(=O)NCCS(=O)(=O)N2CCN(c3ccccc3F)CC2)c1 | inactive | –
5 | Cn1c(SCC(=O)Nc2cccc(S(=O)(=O)N3CCOCC3)c2)nnc1-c1ccncc1 | inconclusive: 89.1 µM [inhibitor, single point] | –
6 | O=P(O)(O)C(O)(Cc1cccnc1)P(=O)(O)O | active: 17.8 µM | –
7 | O=C(CSc1ccc(-c2cccs2)nn1)N1CCCCC1 | inconclusive: 35.5 µM [inhibitor, single point] | –
8 | Cc1ccc(C(NC(=O)C(C)C)c2cc([N+](=O)[O-])c3cccnc3c2O)cc1 (stereo not given) | inconclusive: 11.2 µM [inhibitor, partial curve, poor fit] | –
9 | NS(=O)(=O)c1ccc(NC(=O)COC(=O)CSc2n[nH]c(-c3ccccc3)n2)cc1 | active: 31.6 µM | –
10 | Cc1ccccc1CNC(=O)c1oc2c(c1C)-c1[nH]ncc1CC2 | inactive | –
11 | O=S(=O)(Nc1nc2ccccc2nc1OCC(F)(F)F)c1cccs1 | inconclusive: 70.8 µM [inhibitor, partial curve, poor fit] | –
12 | O=C(O)c1ccc(N2C(=O)CC(N3CCN(c4ccc(Cl)cc4)CC3)C2=O)cc1 (stereo not given) | active: 44.7 µM | –
13 | O=C(COc1ccc(S(=O)(=O)N2CCOCC2)cc1)NC1CCCCC1 | – | inactive: 2.7% [at 12.7 µM]
14 | CCOc1ccc(C2c3c(oc4ccc(C)cc4c3=O)C(=O)N2CCCN2CCOCC2)cc1 (stereo not given) | inactive | –
15 | CCN1c2ccccc2-c2nc(SCC(=O)NCc3ccc(Cl)cc3)ncc2S1(=O)=O | inactive | –
16 | Cc1cccc(-c2noc(CNC(=O)c3ccoc3C)n2)c1 | inactive | –
17 | Cc1cc(N2CCN(C)CC2)nc2ccc(NC(=O)Nc3cccc(Cl)c3)cc12 | inconclusive: 3.98 µM [inhibitor, partial curve, poor fit] | –
18 | Cc1nc(CN2CCN(S(=O)(=O)c3c(Cl)cc(Br)cc3Cl)CC2)cs1 | active: 22.4 µM | –
19 | O=C(Cc1ccccc1[N+](=O)[O-])NCc1ccc2c(c1)OCO2 | inconclusive: 3.55 µM [inhibitor, partial curve, poor fit] | –
20 | O=C(CSc1ncc(-c2ccccc2)[nH]1)Nc1ccc(Cl)cc1 | inconclusive: 22.4 µM [inhibitor, single point] | –
21 | COC(=O)c1nn(-c2ccc(OC)cc2)ccc1=O | inactive | –
22 | COc1ccc(S(=O)(=O)NCC2CCCN(Cc3ccc(OC)cc3F)C2)cc1 (stereo not given) | inconclusive: 89.1 µM [inhibitor, single point] | –
23 | CCN(CC)C(=O)Cn1cc(C(=O)C(=O)NCCc2ccc(S(N)(=O)=O)cc2)c2ccccc21 | inconclusive: 20 µM [inhibitor, partial curve, poor fit] | –

Row | SMILES | Potency | activity, negative = inhibition
24 | Cc1ccc(C)c(S(=O)(=O)N2CCCC2CNC(=O)C(=O)NCc2ccccc2C)c1 (stereo not given) | inactive | –
25 | O=C(N/N=C/c1ccc(O)c([N+](=O)[O-])c1)C1CC1(c1ccccc1)c1ccccc1 (stereo not given) | inconclusive: 2.82 µM [inhibitor, partial curve, poor fit] | –
26 | Cc1c(C)n(Cc2ccc(F)cc2)c2ccc(C(=O)NCc3ccco3)cc12 | inactive | –
27 | c1ccc(CCn2c(SCc3ccccc3)nnc2-c2ccncc2)cc1 | inactive | –
28 | CCOc1cc(C(C(=O)NCC2CCCO2)N(C(=O)Cn2nnc3ccccc32)c2ccc(NC(C)=O)cc2)ccc1O (stereo not given) | active: 44.7 µM | –
29 | O=C1C2CCCN2C(c2ccccc2)N1c1ccc(Cl)cc1 (stereo not given) | inactive | –
30 | CCOC(=O)COn1c(-c2cccc(Cl)c2)nc2ccc([N+](=O)[O-])cc21 | active: 50.1 µM | –
31 | c1ccc(Nc2n[nH]nc2-c2ccccc2)cc1 | inactive | –
32 | CCOC(=O)c1sc(N)nc1-c1ccccc1 | inconclusive: 31.6 µM [inhibitor, single point] | –
33 | COc1cc2c3c(c1)-c1c(sn(-c4cc(OC)ccc4OC)c1=S)C(C)(C)N3C(=O)C2=O | inconclusive: 2 µM [inhibitor, partial curve, poor fit] | –
34 | NS(=O)(=O)c1ccc(CCNC(=O)c2cc3ccccc3oc2=O)cc1 | inconclusive: 79.4 µM [inhibitor, single point] | –
35 | O=C(Nc1nc(-c2cccs2)cs1)C1=COCCO1 | inactive | –
36 | CS(=O)(=O)c1ccc2nc(NC(=O)C3CC(=O)N(c4ccccc4)C3)sc2c1 (stereo not given) | inconclusive: 89.1 µM [inhibitor, single point] | –
37 | CN(C(=O)c1ccco1)c1ccccc1C(=O)O | inconclusive: 56.2 µM [inhibitor, partial curve, poor fit] | –
38 | CCOc1ccc2oc(C(=O)OCC(=O)NC(=O)NC)c(C)c2c1 | inactive | –
39 | COc1ccc2ccccc2c1CNCc1ccccn1 | inconclusive: 39.8 µM [inhibitor, single point] | –
40 | Oc1ccc(Nc2nc(NCC3CCCO3)c3ccccc3n2)cc1 (stereo not given) | active: 50.1 µM | –
41 | Cc1cc(C(=O)CSc2nnc(-c3ccccc3)n2Cc2ccc3c(c2)OCO3)c(C)n1C | active: 28.2 µM | –
42 | CN1C(=O)C(C)(C)c2cc(S(=O)(=O)N3CCC(C(=O)NCc4ccc(Cl)cc4)CC3)ccc21 | inconclusive: 89.1 µM [inhibitor, single point] | –
43 | COc1ccc(/C=C/C(=O)NC(=S)NNC(=O)c2c(-c3ccccc3)noc2C)cc1 | inconclusive: 20 µM [inhibitor, single point] | –
44 | CC(C)COc1ccc(C(=O)N2CCCCC2CCN2CCCCC2)cc1 (stereo not given) | inactive | –
45 | CCCCn1c(N)c(N(CC(C)C)C(=O)C2CCCN(C(=O)c3ccc(Cl)cc3)C2)c(=O)[nH]c1=O (stereo not given) | inconclusive: 89.1 µM [inhibitor, single point] | –
